Results reported in patent US11000038B2, “Pyridone compounds and agricultural and horticultural fungicides containing the same as active ingredients” (priority 2017, dated 2021).

How the values were obtained:
[1] = tested on: gray mold fungi (Botrytis cinerea); test: Test Example B: tomato gray mold, spray treatment of tomato plants; settings: tomato gray mold, spray treatment of tomato plants
[2] = tested on: wheat brown rust fungi (Puccinia recondita); test: Test Example E: wheat brown rust, spray treatment of wheat plants; assay type: in vivo; settings: wheat brown rust, spray treatment of wheat plants
[3] = tested on: grape downy mildew fungus (Plasmopara viticola); test: Test Example G: grape downy mildew, spray treatment of grape plants; settings: grape downy mildew, 250 ppm spray (2.5 ml/pot), 7 to 10 days after inoculation
[4] = tested on: cabbage Alternaria sooty spot fungi (Alternaia brassicicola); test: Test Example C: cabbage Alternaria sooty spot, spray treatment of cabbage plants; assay type: in vivo; settings: cabbage Alternaria sooty spot, spray treatment of cabbage plants
Text: [Test Example C] Cabbage Alternaria Sooty Spot
Test plants (cabbage variety: Shikidori) were cultivated until the cotyledons extended after the sowing of seeds.
<Control Value> Control value=100{1−(n/3)}

[5] = tested on: barley powdery mildew fungi (Blumeria graminis f. sp. hordei); test: Test Example D: barley powdery mildew, spray treatment of barley plants; settings: barley powdery mildew, spray treatment of barley plants

Compound | Test B control value [1] | Test E control value [2] | Test G control value [3] | Test C control value [4] | Test D control value [5]
Cc1c(N)cccc1-n1cc(Br)c(=O)c(Cl)c1-c1c(F)cc(F)cc1F [Compound 333] | H (H shows the control value of more than 50%) | H (H shows the control value of more than 50%) | L (L shows the control value of 50% or less) | H (H shows the control value of more than 50%) | L (L shows the control value of 50% or less)
Cc1ccc(C#N)cc1-n1cc(Br)c(=O)c(Cl)c1-c1c(F)cc(F)cc1F [Compound 336] | H (H shows the control value of more than 50%) | H (H shows the control value of more than 50%) | L (L shows the control value of 50% or less) | L (L shows the control value of 50% or less) | L (L shows the control value of 50% or less)
Cc1ccc(C#N)cc1-n1cc(Br)c(=O)c(Br)c1-c1c(F)cc(F)cc1F [Compound 337] | H (H shows the control value of more than 50%) | H (H shows the control value of more than 50%) | L (L shows the control value of 50% or less) | L (L shows the control value of 50% or less) | L (L shows the control value of 50% or less)
C=Cc1cn(-c2ccccc2C)c(-c2c(F)cc(F)cc2F)c(C)c1=O [Compound 340] | H (H shows the control value of more than 50%) | H (H shows the control value of more than 50%) | L (L shows the control value of 50% or less) | H (H shows the control value of more than 50%) | H (H shows the control value of more than 50%)
Cc1ccccc1-n1cc(Br)c(=O)c(CC(F)(F)F)c1-c1c(F)cc(F)cc1F [Compound 341] | L (L shows the control value of 50% or less) | L (L shows the control value of 50% or less) | L (L shows the control value of 50% or less) | L (L shows the control value of 50% or less) | L (L shows the control value of 50% or less)
Cc1cccc(C)c1-n1cc(Br)c(=O)c(Cl)c1-c1ccc(F)cc1 [Compound 342] | L (L shows the control value of 50% or less) | L (L shows the control value of 50% or less) | L (L shows the control value of 50% or less) | H (H shows the control value of more than 50%) | L (L shows the control value of 50% or less)
Cc1cccc(C)c1-n1cc(Cl)c(=O)c(Br)c1-c1ccc(F)cc1 [Compound 344] | L (L shows the control value of 50% or less) | L (L shows the control value of 50% or less) | L (L shows the control value of 50% or less) | H (H shows the control value of more than 50%) | L (L shows the control value of 50% or less)
Cc1cccc(C)c1-n1cc(Cl)c(=O)c(Cl)c1-c1ccc(F)cc1 [Compound 345] | L (L shows the control value of 50% or less) | L (L shows the control value of 50% or less) | L (L shows the control value of 50% or less) | L (L shows the control value of 50% or less) | L (L shows the control value of 50% or less)
Cc1c(Br)cccc1-n1cc(Br)c(=O)c(Cl)c1-c1c(F)cc(F)cc1F [Compound 346] | H (H shows the control value of more than 50%) | H (H shows the control value of more than 50%) | L (L shows the control value of 50% or less) | H (H shows the control value of more than 50%) | H (H shows the control value of more than 50%)
Cc1ccc(N)cc1-n1cc(Br)c(=O)c(Cl)c1-c1c(F)cc(F)cc1F [Compound 348] | L (L shows the control value of 50% or less) | L (L shows the control value of 50% or less) | L (L shows the control value of 50% or less) | H (H shows the control value of more than 50%) | L (L shows the control value of 50% or less)
CCc1ccccc1-n1cc(Cl)c(=O)c(Br)c1-c1c(F)cc(F)cc1F [Compound 349] | H (H shows the control value of more than 50%) | H (H shows the control value of more than 50%) | L (L shows the control value of 50% or less) | H (H shows the control value of more than 50%) | H (H shows the control value of more than 50%)
CCc1ccccc1-n1cc(Br)c(=O)c(Cl)c1-c1c(F)cc(F)cc1F [Compound 350] | H (H shows the control value of more than 50%) | H (H shows the control value of more than 50%) | L (L shows the control value of 50% or less) | H (H shows the control value of more than 50%) | H (H shows the control value of more than 50%)
Cc1cn(-c2ccccc2F)c(-c2c(F)cccc2F)c(C)c1=O [Compound 351] | H (H shows the control value of more than 50%) | H (H shows the control value of more than 50%) | L (L shows the control value of 50% or less) | H (H shows the control value of more than 50%) | H (H shows the control value of more than 50%)
CCc1ccccc1-n1cc(Br)c(=O)c(Br)c1-c1c(F)cc(F)cc1F [Compound 352] | H (H shows the control value of more than 50%) | H (H shows the control value of more than 50%) | H (H shows the control value of more than 50%) | H (H shows the control value of more than 50%) | H (H shows the control value of more than 50%)
Cc1ccccc1-n1cc(C)c(=O)c(C)c1-c1ccccc1F [Compound 353] | H (H shows the control value of more than 50%) | H (H shows the control value of more than 50%) | L (L shows the control value of 50% or less) | H (H shows the control value of more than 50%) | L (L shows the control value of 50% or less)
Cc1ccccc1-n1cc(C)c(=O)c(C)c1-c1ccccc1Cl [Compound 354] | H (H shows the control value of more than 50%) | H (H shows the control value of more than 50%) | L (L shows the control value of 50% or less) | H (H shows the control value of more than 50%) | H (H shows the control value of more than 50%)
Cc1ccccc1-n1cc(C)c(=O)c(CC(F)(F)F)c1-c1c(F)cc(F)cc1F [Compound 355] | L (L shows the control value of 50% or less) | L (L shows the control value of 50% or less) | L (L shows the control value of 50% or less) | H (H shows the control value of more than 50%) | L (L shows the control value of 50% or less)
COc1cc(F)c(-c2c(CC(F)(F)F)c(=O)c(Br)cn2-c2ccccc2C)c(F)c1 [Compound 356] | H (H shows the control value of more than 50%) | H (H shows the control value of more than 50%) | H (H shows the control value of more than 50%) | H (H shows the control value of more than 50%) | H (H shows the control value of more than 50%)
Cc1cccc(F)c1-n1cc(Br)c(=O)c(Cl)c1-c1ccc(F)cc1 [Compound 358] | H (H shows the control value of more than 50%) | L (L shows the control value of 50% or less) | L (L shows the control value of 50% or less) | L (L shows the control value of 50% or less) | L (L shows the control value of 50% or less)
